Among all 310,000 compounds or so, about 14,000 (4.5%) showed an effect of 50% or more. The effect is printed as a negative number. The list shows a part of the results.
molecular target: human ether-à-go-go-related gene (hERG) potassium channel (human, UniProt Q12809); experiment: primary screen, population patch clamp on CHO cells stably expressing hERG
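Also: peak tail current of the secondary pulse compared with the same well before compound.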

Chain of human ether-à-go-go-related gene (hERG) potassium channel (Q12809 whole entry, looked up): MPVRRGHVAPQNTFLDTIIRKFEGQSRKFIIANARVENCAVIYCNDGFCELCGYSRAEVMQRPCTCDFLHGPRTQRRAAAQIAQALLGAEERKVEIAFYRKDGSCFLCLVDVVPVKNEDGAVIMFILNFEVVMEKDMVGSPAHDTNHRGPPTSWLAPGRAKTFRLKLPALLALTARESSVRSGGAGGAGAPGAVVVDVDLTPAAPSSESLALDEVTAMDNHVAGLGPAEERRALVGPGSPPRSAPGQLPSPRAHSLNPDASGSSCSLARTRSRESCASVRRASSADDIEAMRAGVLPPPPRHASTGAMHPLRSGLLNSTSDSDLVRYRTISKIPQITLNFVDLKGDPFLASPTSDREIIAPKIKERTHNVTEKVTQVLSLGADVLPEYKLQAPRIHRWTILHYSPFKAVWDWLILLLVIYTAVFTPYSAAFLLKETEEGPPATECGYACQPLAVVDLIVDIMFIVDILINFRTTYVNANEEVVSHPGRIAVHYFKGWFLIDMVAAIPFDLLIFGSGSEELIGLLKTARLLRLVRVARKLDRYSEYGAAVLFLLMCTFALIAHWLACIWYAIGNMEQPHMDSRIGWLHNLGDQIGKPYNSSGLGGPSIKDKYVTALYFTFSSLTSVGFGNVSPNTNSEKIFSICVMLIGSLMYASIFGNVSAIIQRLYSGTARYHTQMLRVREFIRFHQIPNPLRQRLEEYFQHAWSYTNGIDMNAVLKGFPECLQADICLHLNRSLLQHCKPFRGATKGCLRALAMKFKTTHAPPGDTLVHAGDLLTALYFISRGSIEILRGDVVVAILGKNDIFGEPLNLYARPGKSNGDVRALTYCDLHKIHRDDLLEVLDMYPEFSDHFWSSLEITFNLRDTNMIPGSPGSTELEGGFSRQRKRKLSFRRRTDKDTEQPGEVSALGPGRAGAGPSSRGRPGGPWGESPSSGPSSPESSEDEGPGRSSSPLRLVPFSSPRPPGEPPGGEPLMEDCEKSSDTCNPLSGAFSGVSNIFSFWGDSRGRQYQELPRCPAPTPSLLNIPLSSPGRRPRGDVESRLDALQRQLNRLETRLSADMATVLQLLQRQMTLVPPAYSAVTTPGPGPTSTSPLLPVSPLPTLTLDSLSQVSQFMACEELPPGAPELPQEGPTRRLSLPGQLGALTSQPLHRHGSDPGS

Going from CN(Cc1ccc(Br)cc1)CC(O)COc1cccc(Br)c1 (stereo not shown) to O=C(COc1ccc(Br)cc1Br)NC(=S)Nc1cccc(CO)c1, the “hERG current change (%, negative = inhibition) at 10uM” value rises from -28.5% to 5.84%.

First: N#Cc1nc(-c2ccccc2F)oc1N1CCN(C(=O)c2ccco2)CC1
Second: O=C(CN1CCN(c2ccccc2F)CC1)c1ccc2c(c1)OCO2
The “hERG current change (%, negative = inhibition) at 10uM” value of the first is lower: -18.2% for the first, -10.3% for the second.

Going from O=C(Nc1nccs1)C1CCCN1S(=O)(=O)c1ccc(F)cc1 (stereo not shown) to Cc1ccc(NC(=O)C2CCCN(S(=O)(=O)c3cnc[nH]3)C2)cc1F (stereo not shown), the “hERG current change (%, negative = inhibition) at 10uM” value rises from -2.17% to 2.95%.

Going from O=C(O)C1CCCN1C(=O)Oc1ccccc1 (stereo not shown) to O=C(CSc1nc(C2CC2)nc2ccccc12)Nc1ccccc1N1CCOCC1, the “hERG current change (%, negative = inhibition) at 10uM” value rises from -7.36% to 24.5%.

Compared with N[C@@H]1CONC1=O, CCCCN1C(=O)N(C)C2NC(=S)NC21 (stereo not shown) is lower in “hERG current change (%, negative = inhibition) at 10uM” value: 19.1% for the first, 10.9% for the second.

First: NC(=O)c1sc2nc(-c3ccccc3)ccc2c1N
Second: FC(F)(F)c1cccc(Oc2nc(-c3ccccc3)nnc2C(F)(F)F)c1
The “hERG current change (%, negative = inhibition) at 10uM” value of the first is higher: 18.7% for the first, -6.42% for the second.

Compared with CCOC(=O)N1CCN(S(=O)(=O)c2ccc(Cl)cc2)CC1, CCOC(=O)N1CCN(C2=C(NS(=O)(=O)c3ccc(C)cc3)C(=O)c3ccccc3C2=O)CC1 is lower in “hERG current change (%, negative = inhibition) at 10uM” value: 0.615% for the first, -20.7% for the second.

Going from CCc1cc2c(SCC(=O)O)ncnc2s1 to Cc1ccc(SCC(=O)c2ccc(CC(=O)O)s2)cc1, the “hERG current change (%, negative = inhibition) at 10uM” value rises from 3.19% to 7.43%.

Compared with CC1CCN(C(=O)C2CCC(C)(C(=O)O)C2(C)C)CC1 (stereo not shown), Cc1cc(C)nc(N2CCCC(C(=O)NC3CC3)C2)n1 (stereo not shown) is higher in “hERG current change (%, negative = inhibition) at 10uM” value: 0.819% for the first, 1.71% for the second.

Compared with COCCN(Cc1cc2cc3c(cc2nc1Cl)OCO3)C(=O)Nc1ccc(F)cc1, Cc1ccc(NCC(=O)Nc2ccc(Br)cc2)cc1F is higher in “hERG current change (%, negative = inhibition) at 10uM” value: -30% for the first, -0.784% for the second.

Going from Cn1nc(C(=O)OCC(=O)Nc2ccc3ccccc3c2)c2ccccc2c1=O to Cc1ccc(-c2nnc(-n3nnc4ccccc43)c3ccccc23)cc1, the “hERG current change (%, negative = inhibition) at 10uM” value rises from 8.04% to 21.8%.

Going from O=C([C@H](Cc1ccccc1)N1C(=O)c2ccccc2C1=O)N1CCOCC1 to CS(=O)(=O)N(CC(=O)Nc1ccccc1C(=O)N1CCOCC1)c1cccc(F)c1, the “hERG current change (%, negative = inhibition) at 10uM” value falls from 4.76% to -0.955%.

Compared with NC(=NC(=O)c1ccc(OC(F)(F)F)cc1)c1ccc(C(F)(F)F)cn1, Cc1ccc(C(=O)N/N=C(/CC(=O)c2cccs2)C(F)(F)F)cc1 is higher in “hERG current change (%, negative = inhibition) at 10uM” value: 9.2% for the first, 11% for the second.

First: COC(=O)c1c(C)cc(C)n2c1nc1ccccc12
Second: COC(=O)C(C)Sc1nc(NCc2ccccc2)nc(N(C)C)n1 (stereo not shown)
The “hERG current change (%, negative = inhibition) at 10uM” value of the first is lower: -20.1% for the first, 24.6% for the second.

First: CCN(CC(=O)NCc1ccc(Cl)cc1)C(=O)COc1ccc(Cl)cc1Br
Second: S=C(NCc1ccco1)Nc1ccc(Oc2ccc(Cl)cc2)cc1
The “hERG current change (%, negative = inhibition) at 10uM” value of the first is lower: -67.7% for the first, 0.238% for the second.

Going from Cc1ccc(-n2nnnc2CS(=O)(=O)c2ccccc2)c(C)c1 to Cc1cccc(S(=O)(=O)Nc2nc3ccccc3nc2NCC2CCCO2)c1 (stereo not shown), the “hERG current change (%, negative = inhibition) at 10uM” value falls from 19.2% to 7.29%.

Going from Cc1cc(OC(C)C(=O)NCCCN2CCOCC2)ccc1Cl (stereo not shown) to CN(CC(=O)Nc1ccc(N2CCOCC2)cc1)C(=O)CCNC(=O)c1ccc(Br)cc1, the “hERG current change (%, negative = inhibition) at 10uM” value rises from -23.8% to 3.43%.

Going from CCN(CC)CCN=C1CCCc2ccccc2N1 to CCCCOCCCNC(=O)C1c2ccccc2Oc2ccccc21, the “hERG current change (%, negative = inhibition) at 10uM” value rises from -0.228% to 8.13%.

Compared with Cc1onc(-c2c(Cl)cccc2Cl)c1C(=O)Nc1nccs1, CSCC[C@H](NC(=O)c1cccnc1)c1nnc2ccccn12 is lower in “hERG current change (%, negative = inhibition) at 10uM” value: 17.1% for the first, 9.71% for the second.

Going from COc1ccccc1Cn1c(=S)[nH]c2cc(C(=O)NCC3CCCO3)ccc2c1=O (stereo not shown) to COc1ccc(C(=O)C2CCCN(C(=O)c3ccc4nccnc4c3)C2)c(C)c1 (stereo not shown), the “hERG current change (%, negative = inhibition) at 10uM” value falls from 11.9% to 1.53%.

Going from Cn1ccc(C(=O)NC(=S)N2CCSCC2)n1 to Cc1ccc(CNC(=O)C2CCN(c3nnc(N4CCCC4=O)s3)CC2)cc1, the “hERG current change (%, negative = inhibition) at 10uM” value rises from 9.2% to 14.4%.

Going from CCn1c(SCC(=O)NC2CC2)nnc1-c1csc(C)c1 to CC[C@@H](C)[C@H](NC(=O)OC(C)(C)C)c1nnc(S(=O)(=O)Cc2cc(C)ccc2C)o1, the “hERG current change (%, negative = inhibition) at 10uM” value falls from 16.3% to 4.09%.

First: COC(=O)C1=C(CS(=O)(=O)c2cc(OC)ccc2OC)NC(=O)NC1c1ccc(O)c(OC)c1 (stereo not shown)
Second: COc1ccc(CNC(=O)NC2CCCCC2)cc1
The “hERG current change (%, negative = inhibition) at 10uM” value of the first is higher: 3.68% for the first, 2.13% for the second.

Compared with CCOC(=O)N1CCN(C(=O)CS(=O)(=O)c2cn(Cc3ccccc3C)c3ccccc23)CC1, COCCN(C(=O)COC(=O)Cc1ccccc1)c1c(N)n(Cc2ccccc2)c(=O)[nH]c1=O is higher in “hERG current change (%, negative = inhibition) at 10uM” value: -0.785% for the first, 15.7% for the second.

Compared with O=C(N/N=C/c1ccc[nH]1)c1ccccc1OCc1ccccc1Cl, COc1ccccc1/C=C/C(=O)NCC(=O)N/N=C/c1ccc(C)o1 is higher in “hERG current change (%, negative = inhibition) at 10uM” value: -25.5% for the first, -9.21% for the second.

Compared with Cc1ccc(S(=O)(=O)N2CCC(=O)N(C(COCc3cccc(C)c3)C(C)C)CC2)cc1 (stereo not shown), Fc1ccc(C2=CCN(C(c3cccs3)c3nnnn3CCc3ccccc3)CC2)cc1 (stereo not shown) is higher in “hERG current change (%, negative = inhibition) at 10uM” value: -40.8% for the first, -0.341% for the second.

Going from COc1cc(S(=O)(=O)NCC2COCCO2)ccc1-n1cnnn1 (stereo not shown) to COc1cccc(-n2cc(CN(C)Cc3nc(Cc4cccc(F)c4)no3)cn2)c1, the “hERG current change (%, negative = inhibition) at 10uM” value rises from -42.3% to -10.3%.

Going from COc1ccc(-c2oc3ccc(-c4ccc5c(c4)OCO5)cc3c2-c2ccc(OC)nc2)cc1 to Cc1cccc(OCc2nnc(SCc3nc4cc(C(F)(F)F)ccc4c(=O)[nH]3)o2)c1, the “hERG current change (%, negative = inhibition) at 10uM” value falls from 23.9% to 12.5%.

First: Cl.NCCC1CCCC(CCN)N1 (stereo not shown)
Second: Cc1cccc(CSC(=N)N)c1
The “hERG current change (%, negative = inhibition) at 10uM” value of the first is lower: -3.51% for the first, 1.28% for the second.

— PMC4336329 (PLoS ONE, 2015)
